In US9023789B2, “Amylin analogs and pharmaceutical compositions thereof” (Novo Nordisk A/S, priority 2012, dated 2015):
At least one read-out could not be matched to a standard name with certainty. Numbered stars: 1 amine (or outer) side, 2 acyl side, 3 side chain; on linkers, the order of the positions; unused ones are H or OH. Bridge positions count the residues as written; N and C are the ends. Peptide text beside a SMILES is read from it. * marks the point of attachment. C20 diacid = O=C(O)CCCCCCCCCCCCCCCCCCC(=O)*; γGlu = O=C(O)[C@H](CCC(=O)[*:2])N[*:1]; AEEA = NCCOCCOCC(=O)O

Experiment: ASSAY (III) ThT fibrillation assay for physical stability
Assay type: physicochemical
Description: Assay (III)—ThT Fibrillation Assays for the Assessment of Physical Stability of Protein Formulations Low physical stability of a polypeptide may lead to amyloid fibril formation, which is observed as well-ordered, thread-like macromolecular structures in the sample eventually resulting in gel formation. This has traditionally been measured by visual inspection of the sample. However, that kind of measurement is very subjective and depending on the observer. Therefore, the application of a small molecule indicator probe is much more advantageous. Thioflavin T (ThT) is such a probe and has a distinct fluorescence signature when binding to fibrils [Naiki et al. (1989) Anal. […] LeVine (1999) Methods. Enzymol. […], 274-284]. The time course for fibril formation can be described by a sigmoidal curve with the following expression [Nielsen et al. (2001) Biochemistry 40, 6036-6046]; […] Here, F is the ThT fluorescence at the time t. The constant t0 is the time needed to reach 50% of maximum fluorescence. […] Few of those intermediates nucleate to form a template onto which further intermediates may assembly and the fibrillation proceeds. The lag-time corresponds to the interval in which the critical mass of nucleus is built up and the apparent rate constant is the rate with which the fibril itself is formed. Sample Preparation Samples were prepared freshly before each assay. Each sample composition is described in each example. The pH of the sample was adjusted to the desired value using appropriate amounts of concentrated NaOH and HClO4 or HCl. Thioflavin T was added to the samples from a stock solution in H2O to a final concentration of 1 μM. Sample aliquots of 200 μl were placed in a 96 well microtiter plate (Packard OptiPlate™96, white polystyrene). Usually, four or eight replica of each sample (corresponding to one test condition) were placed in one column of wells. The plate was sealed with Scotch Pad (Qiagen). Incubation and Fluorescence Measurement Incubation at given temperature, shaking and measurement of the ThT fluorescence emission were done in a Fluoroskan Ascent FL fluorescence platereader or Varioskan platereader (Thermo Labsystems). The temperature was adjusted to 37° C. The orbital shaking was adjusted to 960 rpm with an amplitude of 1 mm in all the presented data. Fluorescence measurement was done using excitation through a 444 nm filter and measurement of emission through a 485 nm filter. Each run was initiated by incubating the plate at the assay temperature for 10 min. The plate was measured every 20 minutes for a desired period of time. Between each measurement, the plate was shaken and heated as described. Data Handling The measurement points were saved in Microsoft Excel format for further processing and curve drawing and fitting was performed using GraphPad Prism. The background emission from ThT in the absence of fibrils was negligible. The data points are typically a mean of four or eight samples and shown with standard deviation error bars. Only data obtained in the same experiment (i.e. samples on the same plate) are presented in the same graph ensuring a relative measure of fibrillation between experiments. The data set may be fitted to Eq. […] However, since full sigmodial curves in this case are not always achieved during the measurement time, the degree of fibrillation is expressed as ThT fluorescence tabulated as the mean of the samples and shown with the standard deviation at various time points. Measurement of Initial and Final Concentrations The polypeptide concentration in each of the tested formulations were measured both before application in the ThT fibrillation assay (“Initial”) and after completion of the ThT fibrillation (“After ThT assay”). Concentrations were determined by reverse HPLC methods using a pramlintide standard as a reference. Before measurement after completion 150 μl was collected from each of the replica and transferred to an Eppendorf tube. These were centrifuged at 30000 G for 40 mins. […]

| Structure (SMILES) | ThT pH 4.0 recovery (%) |
| --- | --- |
| CC[C@H](C)[C@H](NC(=O)[C@H](C)NC(=O)CNC(=O)[C@H](Cc1ccccc1)NC(=O)[C@H](CC(N)=O)NC(=O)[C@@H]1CCCN1C(=O)[C@H](CO)NC(=O)[C@H](CO)NC(=O)[C@H](Cc1c[nH]cn1)NC(=O)[C@H](CCCNC(=N)N)NC(=O)[C@H](CC(C)C)NC(=O)[C@H](Cc1ccccc1)NC(=O)[C@H](CCC(=O)O)NC(=O)[C@H](C)NC(=O)[C@H](CC(C)C)NC(=O)[C@H](CCCNC(=N)N)NC(=O)[C@H](CCC(N)=O)NC(=O)[C@@H](NC(=O)[C@H](C)NC(=O)[C@@H]1CSSC[C@H](NC(=O)[C@H](CCCCN)NC(=O)CC[C@H](NC(=O)CCCCCCCCCCCCCCCCCCC(=O)O)C(=O)O)C(=O)N[C@@H](CC(N)=O)C(=O)N[C@@H]([C@@H](C)O)C(=O)N[C@@H](C)C(=O)N[C@@H]([C@@H](C)O)C(=O)N1)[C@@H](C)O)C(=O)N1CCC[C@H]1C(=O)N[C@@H](CO)C(=O)N[C@@H](CO)C(=O)N[C@H](C(=O)N[C@@H](CC(N)=O)C(=O)N[C@H](C(=O)NCC(=O)N[C@@H](Cc1c[nH]cn1)C(=O)N[C@@H](CC(N)=O)C(=O)N[C@H](C(=O)N[C@@H](Cc1ccc(O)cc1)C(N)=O)[C@@H](C)O)C(C)C)[C@@H](C)O [Example 17] ({C20 diacid-γGlu}-KCNTATCATQRLAEFLRHSSPNFGAIPSSTNVGHNTY-NH2; disulfide 2-7 (inferred)) | 92 |
| CC[C@H](C)[C@H](NC(=O)[C@H](C)NC(=O)CNC(=O)[C@H](Cc1ccccc1)NC(=O)[C@H](CC(N)=O)NC(=O)[C@@H]1CCCN1C(=O)[C@H](CO)NC(=O)[C@H](CO)NC(=O)[C@H](Cc1c[nH]cn1)NC(=O)[C@H](CCCNC(=N)N)NC(=O)[C@H](CC(C)C)NC(=O)[C@H](Cc1ccccc1)NC(=O)[C@H](CCC(=O)O)NC(=O)[C@H](C)NC(=O)[C@H](CC(C)C)NC(=O)[C@H](CCCNC(=N)N)NC(=O)[C@H](CCC(N)=O)NC(=O)[C@@H](NC(=O)[C@H](C)NC(=O)[C@@H]1CSSC[C@H](NC(=O)[C@H](CCCCN)NC(=O)CC[C@H](NC(=O)CCCCCCCCCCCCCCCCCCC(=O)O)C(=O)O)C(=O)N[C@@H](CC(N)=O)C(=O)N[C@@H]([C@@H](C)O)C(=O)N[C@@H](C)C(=O)N[C@@H]([C@@H](C)O)C(=O)N1)[C@@H](C)O)C(=O)N1CCC[C@H]1C(=O)N[C@@H](CO)C(=O)N[C@@H](CO)C(=O)N[C@H](C(=O)N[C@@H](CC(N)=O)C(=O)N[C@H](C(=O)NCC(=O)N[C@@H](CO)C(=O)N[C@@H](Cc1c[nH]cn1)C(=O)N[C@H](C(=O)N[C@@H](Cc1ccc(O)cc1)C(N)=O)[C@@H](C)O)C(C)C)[C@@H](C)O [Example 18] ({C20 diacid-γGlu}-KCNTATCATQRLAEFLRHSSPNFGAIPSSTNVGSHTY-NH2; disulfide 2-7) | 100 |
| CC[C@H](C)[C@H](NC(=O)[C@H](C)NC(=O)CNC(=O)[C@H](Cc1ccccc1)NC(=O)[C@H](CC(N)=O)NC(=O)[C@@H]1CCCN1C(=O)[C@H](CO)NC(=O)[C@H](CO)NC(=O)[C@H](Cc1c[nH]cn1)NC(=O)[C@H](CCCNC(=N)N)NC(=O)[C@H](CC(C)C)NC(=O)[C@H](Cc1ccccc1)NC(=O)[C@H](CCC(=O)O)NC(=O)[C@H](C)NC(=O)[C@H](CC(C)C)NC(=O)[C@H](CCCNC(=N)N)NC(=O)[C@H](CCC(N)=O)NC(=O)[C@@H](NC(=O)[C@H](C)NC(=O)[C@@H]1CSSC[C@H](NC(=O)[C@H](CCCCN)NC(=O)COCCOCCNC(=O)COCCOCCNC(=O)CC[C@H](NC(=O)CCCCCCCCCCCCCCCCCCC(=O)O)C(=O)O)C(=O)N[C@@H](CC(N)=O)C(=O)N[C@@H]([C@@H](C)O)C(=O)N[C@@H](C)C(=O)N[C@@H]([C@@H](C)O)C(=O)N1)[C@@H](C)O)C(=O)N1CCC[C@H]1C(=O)N[C@@H](CO)C(=O)N[C@@H](CO)C(=O)N[C@H](C(=O)N[C@@H](CC(N)=O)C(=O)N[C@H](C(=O)NCC(=O)N[C@@H](CO)C(=O)N[C@@H](CC(N)=O)C(=O)N[C@H](C(=O)N[C@@H](Cc1ccc(O)cc1)C(N)=O)[C@@H](C)O)C(C)C)[C@@H](C)O [Example 19] | 0 |
| CC[C@H](C)[C@H](NC(=O)[C@H](C)NC(=O)CNC(=O)[C@H](Cc1ccccc1)NC(=O)[C@H](CC(N)=O)NC(=O)[C@@H]1CCCN1C(=O)[C@H](CO)NC(=O)[C@H](CO)NC(=O)[C@H](Cc1c[nH]cn1)NC(=O)[C@H](CCCNC(=N)N)NC(=O)[C@H](CC(C)C)NC(=O)[C@H](Cc1ccccc1)NC(=O)[C@H](CCC(=O)O)NC(=O)[C@H](C)NC(=O)[C@H](CC(C)C)NC(=O)[C@H](CCCNC(=N)N)NC(=O)[C@H](CCC(N)=O)NC(=O)[C@@H](NC(=O)[C@H](C)NC(=O)[C@@H]1CSSC[C@H](NC(=O)[C@H](CCCCN)NC(=O)COCCOCCNC(=O)COCCOCCNC(=O)CC[C@H](NC(=O)CCCCCCCCCCCCCCCCCCC(=O)O)C(=O)O)C(=O)N[C@@H](CC(N)=O)C(=O)N[C@@H]([C@@H](C)O)C(=O)N[C@@H](C)C(=O)N[C@@H]([C@@H](C)O)C(=O)N1)[C@@H](C)O)C(=O)N1CCC[C@H]1C(=O)N[C@@H](CO)C(=O)N[C@@H](CO)C(=O)N[C@H](C(=O)N[C@@H](CC(N)=O)C(=O)N[C@H](C(=O)NCC(=O)N[C@@H](CO)C(=O)N[C@@H](CC(N)=O)C(=O)N[C@H](C(=O)N1CCC[C@H]1C(N)=O)[C@@H](C)O)C(C)C)[C@@H](C)O [Example 20] ({C20 diacid-γGlu-AEEA-AEEA}-KCNTATCATQRLAEFLRHSSPNFGAIPSSTNVGSNTP-NH2; disulfide 2-7) | 88 |
| CC[C@H](C)[C@H](NC(=O)[C@H](C)NC(=O)CNC(=O)[C@H](Cc1ccccc1)NC(=O)[C@H](CC(N)=O)NC(=O)[C@@H]1CCCN1C(=O)[C@H](CO)NC(=O)[C@H](CO)NC(=O)[C@H](Cc1c[nH]cn1)NC(=O)[C@H](CCCNC(=N)N)NC(=O)[C@H](CC(C)C)NC(=O)[C@H](Cc1ccccc1)NC(=O)[C@H](CCC(=O)O)NC(=O)[C@H](C)NC(=O)[C@H](CC(C)C)NC(=O)[C@H](CCCNC(=N)N)NC(=O)[C@H](CCC(N)=O)NC(=O)[C@@H](NC(=O)[C@H](C)NC(=O)[C@@H]1CSSC[C@H](NC(=O)[C@H](CCCCN)NC(=O)CC[C@H](NC(=O)CCCCCCCCCCCCCCCCCCC(=O)O)C(=O)O)C(=O)N[C@@H](CC(N)=O)C(=O)N[C@@H]([C@@H](C)O)C(=O)N[C@@H](C)C(=O)N[C@@H]([C@@H](C)O)C(=O)N1)[C@@H](C)O)C(=O)N1CCC[C@H]1C(=O)N[C@@H](CO)C(=O)N[C@@H](CO)C(=O)N[C@H](C(=O)N[C@@H](CC(N)=O)C(=O)N[C@H](C(=O)NCC(=O)N[C@@H](CO)C(=O)N[C@@H](CCC(=O)O)C(=O)N[C@H](C(=O)N[C@@H](Cc1ccc(O)cc1)C(N)=O)[C@@H](C)O)C(C)C)[C@@H](C)O [Example 22] ({C20 diacid-γGlu}-KCNTATCATQRLAEFLRHSSPNFGAIPSSTNVGSETY-NH2; disulfide 2-7) | 89 |
| CC[C@H](C)[C@H](NC(=O)[C@H](C)NC(=O)CNC(=O)[C@H](Cc1ccccc1)NC(=O)[C@H](CC(N)=O)NC(=O)[C@@H]1CCCN1C(=O)[C@H](CO)NC(=O)[C@H](CO)NC(=O)[C@H](Cc1c[nH]cn1)NC(=O)[C@H](CCCNC(=N)N)NC(=O)[C@H](CC(C)C)NC(=O)[C@H](Cc1ccccc1)NC(=O)[C@H](CC(N)=O)NC(=O)[C@H](C)NC(=O)[C@H](CC(C)C)NC(=O)[C@H](CCCNC(=N)N)NC(=O)[C@H](CCC(N)=O)NC(=O)[C@@H](NC(=O)[C@H](C)NC(=O)[C@@H]1CSSC[C@H](NC(=O)[C@H](CCCCN)NC(=O)CC[C@H](NC(=O)CCCCCCCCCCCCCCCCCCC(=O)O)C(=O)O)C(=O)N[C@@H](CC(N)=O)C(=O)N[C@@H]([C@@H](C)O)C(=O)N[C@@H](C)C(=O)N[C@@H]([C@@H](C)O)C(=O)N1)[C@@H](C)O)C(=O)N1CCC[C@H]1C(=O)N[C@@H](CO)C(=O)N[C@@H](CO)C(=O)N[C@H](C(=O)N[C@@H](CC(N)=O)C(=O)N[C@H](C(=O)NCC(=O)N[C@@H](CO)C(=O)N[C@@H](CCC(=O)O)C(=O)N[C@H](C(=O)N[C@@H](Cc1ccc(O)cc1)C(N)=O)[C@@H](C)O)C(C)C)[C@@H](C)O [Example 23] | 0 |
